Data taken from the supplement of paper PMC4967469.

Columns and labels:
Test in all cases: Viability of human cancer cell lines after 72 h of drug (GDSC screen)
Doxorubicin = compound: COc1cccc2c1C(=O)c1c(O)c3c(c(O)c1C2=O)C[C@@](O)(C(=O)CO)C[C@@H]3O[C@H]1C[C@H](N)[C@H](O)[C@H](C)O1 [Doxorubicin]; details: top dose 1.024 µM
Description: (§1)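 Human cancer cell lines in 384-well plates, medium with 10% serum, drug for 72 h over a 256-fold dose range (nine 2-fold or five 4-fold steps up to the top dose). Adherent lines were fixed and stained with the nucleic acid dye Syto60, suspension lines read with resazurin; signal relative to control wells, capped at 0 and 100%. One two-parameter sigmoid per drug and line, fitted in a mixed model over all curves with the slope shared within a line.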

VX-11e = compound: Cc1cnc(Nc2ccc(F)cc2Cl)nc1-c1c[nH]c(C(=O)N[C@H](CO)c2cccc(Cl)c2)c1 [VX-11e]; details: top dose 5.12 µM; top dose inferred
Description: as §1

Vismodegib = compound: CS(=O)(=O)c1ccc(C(=O)Nc2ccc(Cl)c(-c3ccccn3)c2)c(Cl)c1 [Vismodegib]; details: top dose 10 µM; top dose inferred
Description: as §1

Dimethyloxalylglycine = compound: COC(=O)CNC(=O)C(=O)OC [Dimethyloxalylglycine]; details: top dose 4000 µM; top dose inferred
Description: as §1

OSI-027 = compound: COc1cccc2cc(-c3nc([C@H]4CC[C@H](C(=O)O)CC4)n4ncnc(N)c34)[nH]c12 [OSI-027]; details: top dose 20 µM
Description: as §1

TG101348 = compound: Cc1cnc(Nc2ccc(OCCN3CCCC3)cc2)nc1Nc1cccc(S(=O)(=O)NC(C)(C)C)c1 [TG101348]; details: top dose 10.24 µM
Description: as §1

BIX02189 = compound: CN(C)Cc1cccc(N=C(c2ccccc2)c2c(O)[nH]c3cc(C(=O)N(C)C)ccc23)c1 [BIX02189]; details: top dose 20 µM; top dose inferred
Description: as §1

CCT018159 = compound: CCc1cc(-c2n[nH]c(C)c2-c2ccc3c(c2)OCCO3)c(O)cc1O [CCT018159]; details: top dose 10 µM; top dose inferred
Description: as §1

UNC1215 = compound: O=C(c1ccc(C(=O)N2CCC(N3CCCC3)CC2)c(Nc2ccccc2)c1)N1CCC(N2CCCC2)CC1 [UNC1215]; details: top dose 1 µM; top dose inferred
Description: as §1

BMX-IN-1 (QL-XII-61) = compound: C=CC(=O)Nc1cc(-n2c(=O)ccc3cnc4ccc(-c5ccc(NS(C)(=O)=O)cc5)cc4c32)ccc1C [BMX-IN-1 (QL-XII-61)]; details: top dose 10 µM; top dose inferred
Description: as §1

17-AAG = compound: C=CCNC1=C2C[C@@H](C)C[C@H](OC)[C@H](O)[C@@H](C)/C=C(\C)[C@H](OC(N)=O)[C@@H](OC)/C=C\C=C(/C)C(=O)NC(=CC1=O)C2=O [17-AAG]; details: top dose 1 µM
Description: as §1

Cell Line | AUC (Doxorubicin) | pIC50 (Doxorubicin) | AUC (VX-11e) | pIC50 (VX-11e) | AUC (Vismodegib) | pIC50 (Vismodegib) | AUC (Dimethyloxalylglycine) | pIC50 (Dimethyloxalylglycine) | AUC (OSI-027) | pIC50 (OSI-027) | AUC (TG101348) | pIC50 (TG101348) | AUC (BIX02189) | pIC50 (BIX02189) | AUC (CCT018159) | pIC50 (CCT018159) | AUC (UNC1215) | pIC50 (UNC1215) | AUC (BMX-IN-1 (QL-XII-61)) | pIC50 (BMX-IN-1 (QL-XII-61)) | AUC (17-AAG) | pIC50 (17-AAG)
OVKATE (ovary, adherent) | 0.914 | < 5.99 | 0.826 | < 5.29 | 0.979 | < 5.00 | 0.653 | 3.05 | 0.837 | < 4.70 | 0.862 | < 4.99 | 0.817 | < 4.70 | 0.961 | < 5.00 | 0.977 | < 6.00 | 0.972 | < 5.00 | 0.855 | < 6.00
OVTOKO (ovary, adherent) | 0.712 | 6.52 | 0.947 | < 5.29 | 0.963 | < 5.00 | 0.48 | 3.66 | 0.692 | 5.30 | 0.784 | 5.25 | 0.955 | < 4.70 | 0.874 | < 5.00 | 0.977 | < 6.00 | 0.965 | < 5.00 | 0.642 | 6.76
PANC-02-03 (pancreas, adherent) | 0.747 | 6.41 | 0.661 | 6.01 | 0.982 | < 5.00 | 0.483 | 3.65 | 0.893 | < 4.70 | 0.885 | < 4.99 | 0.839 | 4.75 | 0.869 | < 5.00 | 0.981 | < 6.00 | 0.962 | < 5.00 | 0.484 | 7.25
PC-14 (lung adenocarcinoma, adherent) | 0.711 | 6.63 | 0.984 | < 5.29 | 0.978 | < 5.00 | 0.848 | 2.60 | 0.637 | 5.54 | 0.766 | 5.47 | 0.908 | < 4.70 | 0.81 | 5.34 | 0.989 | < 6.00 | 0.975 | < 5.00 | 0.441 | 7.36
PCI-4B (head and neck, adherent) | 0.38 | 7.52 | 0.936 | < 5.29 | 0.938 | < 5.00 | 0.592 | 3.35 | 0.257 | 6.58 | 0.769 | 5.44 | 0.94 | < 4.70 | 0.829 | 5.24 | 0.986 | < 6.00 | 0.964 | < 5.00 | 0.488 | 7.24
PCI-6A (head and neck, adherent) | 0.347 | 7.61 | 0.925 | < 5.29 | 0.96 | < 5.00 | 0.789 | 2.76 | 0.457 | 6.02 | 0.806 | 5.29 | 0.866 | 4.76 | 0.928 | < 5.00 | 0.986 | < 6.00 | 0.986 | < 5.00 | 0.497 | 7.21
PCI-30 (head and neck, adherent) | 0.905 | < 5.99 | 0.981 | < 5.29 | 0.963 | < 5.00 | 0.665 | 3.09 | 0.93 | < 4.70 | 0.95 | < 4.99 | 0.969 | < 4.70 | 0.868 | < 5.00 | 0.975 | < 6.00 | 0.954 | < 5.00 | 0.416 | 7.46
PL4 (pancreas, adherent) | 0.746 | 6.48 | 0.969 | < 5.29 | 0.963 | < 5.00 | 0.479 | 3.66 | 0.931 | < 4.70 | 0.954 | < 4.99 | 0.973 | < 4.70 | 0.955 | < 5.00 | 0.985 | < 6.00 | 0.986 | < 5.00 | 0.884 | < 6.00
RC-K8 (B-cell lymphoma, suspension) | 0.867 | 6.14 | 0.988 | < 5.29 | 0.992 | < 5.00 | 0.943 | < 2.40 | 0.891 | 4.75 | 0.977 | < 4.99 | 0.975 | < 4.70 | 0.993 | < 5.00 | 0.981 | < 6.00 | 0.992 | < 5.00 | 0.993 | < 6.00
RCM-1 (large intestine, adherent) | 0.914 | < 5.99 | 0.852 | < 5.29 | 0.976 | < 5.00 | 0.72 | 2.91 | 0.939 | < 4.70 | 0.967 | < 4.99 | 0.976 | < 4.70 | 0.927 | < 5.00 | 0.983 | < 6.00 | 0.983 | < 5.00 | 0.843 | 6.02
RERF-LC-KJ (lung adenocarcinoma, adherent) | 0.563 | 7.02 | 0.974 | < 5.29 | 0.981 | < 5.00 | 0.784 | 2.76 | 0.77 | 5.10 | 0.934 | < 4.99 | 0.986 | < 4.70 | 0.912 | < 5.00 | 0.986 | < 6.00 | 0.933 | < 5.00 | 0.734 | 6.53
RERF-LC-MS (lung adenocarcinoma, adherent) | 0.784 | 6.35 | 0.963 | < 5.29 | 0.987 | < 5.00 | 0.746 | 2.89 | 0.88 | < 4.70 | 0.948 | < 4.99 | 0.957 | < 4.70 | 0.837 | 5.16 | 0.985 | < 6.00 | 0.97 | < 5.00 | 0.827 | 6.20
RERF-LC-Sq1 (lung squamous cell carcinoma, adherent) | 0.908 | < 5.99 | 0.97 | < 5.29 | 0.961 | < 5.00 | 0.807 | 2.47 | 0.756 | 5.00 | 0.837 | < 4.99 | 0.953 | < 4.70 | 0.946 | < 5.00 | 0.973 | < 6.00 | 0.976 | < 5.00 | 0.657 | 6.68
RH-1 (rhabdomyosarcoma, adherent) | 0.243 | 7.87 | 0.934 | < 5.29 | 0.992 | < 5.00 | 0.665 | 3.18 | 0.162 | 6.83 | 0.975 | < 4.99 | 0.861 | 4.90 | 0.957 | < 5.00 | 0.989 | < 6.00 | 0.916 | < 5.00 | 0.951 | < 6.00
RL (B-cell lymphoma, suspension) | 0.911 | < 5.99 | 0.938 | < 5.29 | 0.988 | < 5.00 | 0.651 | 3.20 | 0.162 | 6.88 | 0.816 | 5.29 | 0.86 | 4.84 | 0.889 | 5.01 | 0.986 | < 6.00 | 0.969 | < 5.00 | 0.938 | < 6.00
RO82-W-1 (thyroid, adherent) | 0.844 | < 5.99 | 0.982 | < 5.29 | 0.982 | < 5.00 | 0.787 | 2.64 | 0.962 | < 4.70 | 0.97 | < 4.99 | 0.971 | < 4.70 | 0.862 | < 5.00 | 0.978 | < 6.00 | 0.959 | < 5.00 | 0.749 | 6.39
RPMI-8402 (T-cell lymphoblastic leukaemia, suspension) | 0.424 | 7.39 | 0.96 | < 5.29 | 0.987 | < 5.00 | 0.534 | 3.52 | 0.2 | 6.71 | 0.466 | 6.28 | 0.709 | 5.36 | 0.933 | < 5.00 | 0.99 | < 6.00 | 0.963 | < 5.00 | 0.989 | < 6.00
RPMI-8866 (chronic myeloid leukaemia, suspension) | 0.695 | 6.67 | 0.86 | 5.42 | 0.805 | 5.34 | 0.869 | 2.49 | 0.731 | 5.27 | 0.824 | 5.26 | 0.856 | 4.84 | 0.805 | 5.33 | 0.987 | < 6.00 | 0.921 | < 5.00 | 0.852 | 6.16
RT4 (bladder, adherent) | 0.848 | 6.08 | 0.693 | 5.94 | 0.987 | < 5.00 | 0.643 | 3.20 | 0.689 | 5.36 | 0.859 | 5.03 | 0.752 | 5.16 | 0.986 | < 5.00 | 0.985 | < 6.00 | 0.929 | < 5.00 | 0.8 | 6.29
RVH-421 (melanoma, adherent) | 0.636 | 6.76 | 0.689 | 5.88 | 0.98 | < 5.00 | 0.707 | 2.92 | 0.893 | < 4.70 | 0.97 | < 4.99 | 0.891 | < 4.70 | 0.907 | < 5.00 | 0.968 | < 6.00 | 0.975 | < 5.00 | 0.666 | 6.67
RXF393 (kidney, adherent) | 0.607 | 6.85 | 0.846 | < 5.29 | 0.952 | < 5.00 | 0.669 | 3.05 | 0.662 | 5.37 | 0.622 | 5.80 | 0.833 | < 4.70 | 0.764 | 5.29 | 0.973 | < 6.00 | 0.935 | < 5.00 | 0.579 | 6.95
SBC-3 (small cell lung carcinoma, adherent) | 0.27 | 7.82 | 0.912 | < 5.29 | 0.989 | < 5.00 | 0.201 | 4.44 | 0.059 | > 7.11 | 0.637 | 5.83 | 0.895 | < 4.70 | 0.943 | < 5.00 | 0.988 | < 6.00 | 0.955 | < 5.00 | 0.867 | 6.11
SF126 (glioma, adherent) | 0.584 | 6.96 | 0.984 | < 5.29 | 0.986 | < 5.00 | 0.446 | 3.75 | 0.702 | 5.32 | 0.868 | < 4.99 | 0.926 | < 4.70 | 0.848 | 5.09 | 0.976 | < 6.00 | 0.955 | < 5.00 | 0.929 | < 6.00

pIC50: −log10 of the molar value. Lines with a small IC50 respond at low doses; where the fit passes the top or lowest dose, that dose stands as a limit. For AUC the same curve is integrated over the 256-fold range of doses and scaled to a fraction; it is 1 without any effect and falls as sensitivity rises. For some assays here: The top dose, if marked as inferred, is not printed in the source and was worked back from the curve model.
